# Results published in the supplement of paper PMC8728848.
# The list shows a part of the results.
# B1: Clone730PsrP (Streptococcus pneumoniae) (protein)
# chain: MDHHHHHHHHHHASENLYFQGAMVVGSQTAAATEATAKKVEEDRKKPASDYVASVTNVNLQSYAKRRKRSVDSIEQLLASIKNAAVFSGNTIVNGAPAINASLNIAKSETKVYTGEGVDSVYRVPIYYKLKVTNDGSKLTFTYTVTYVNPKTNDLGNISSMRPGYSIYNSGTSTQTMLTLGSDLGKPSGVKNYITDKNGRQVLSYNTSTMTTQGSGYTWGNGAQMNGFFAKKGYGLTSSWTVPITGTDTSFTFTPYAARTDRIGINYFNGGGKVVESSTT
# Legend:
# Experiment in all cases: glycan array binding signal (z-score within array); higher = stronger binding
# Conditions in all cases: glycan notation: IUPAC condensed, linker removed
# [1] = biological target: Gal(b1-4)GlcNAc(b1-3)Gal(b1-4)GlcNAc(b1-2)[Gal(b1-4)GlcNAc(b1-3)Gal(b1-4)GlcNAc(b1-6)]Man(a1-6)[Gal(b1-4)GlcNAc(b1-3)Gal(b1-4)GlcNAc(b1-2)Man(a1-3)]Man(b1-4)GlcNAc(b1-4)GlcNAc
# How it was run: (§1)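 Negative Z-scores can be read as non-binding. The Z-score is calculated within each array and then averaged across arrays of one protein sequence at different concentrations or buffers and across linkers. Arrays, 3228 in all, were curated from the Consortium for Functional Glycomics database and kept only where the protein sequence was available.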
# [2] = biological target: Gal(b1-4)GlcNAc(b1-3)Gal(b1-4)GlcNAc(b1-2)[Gal(b1-4)GlcNAc(b1-3)Gal(b1-4)GlcNAc(b1-6)]Man(a1-6)[Gal(b1-4)GlcNAc(b1-3)Gal(b1-4)GlcNAc(b1-2)Man(a1-3)]Man(b1-4)GlcNAc(b1-4)[Fuc(a1-6)]GlcNAc
# How it was run: as §1
# [3] = biological target: Gal(b1-4)GlcNAc(b1-3)Gal(b1-4)GlcNAc(b1-3)Gal(b1-4)GlcNAc
# How it was run: as §1
# [4] = biological target: Gal(b1-4)GlcNAc(b1-3)Gal(b1-4)GlcNAc(b1-3)Gal(b1-4)GlcNAc(b1-2)Man(a1-3)[Gal(b1-4)GlcNAc(b1-3)Gal(b1-4)GlcNAc(b1-3)Gal(b1-4)GlcNAc(b1-2)Man(a1-6)]Man(b1-4)GlcNAc(b1-4)GlcNAc
# How it was run: as §1
# [5] = biological target: Gal(b1-4)GlcNAc(b1-3)Gal(b1-4)GlcNAc(b1-3)Gal(b1-4)GlcNAc(b1-2)Man(a1-3)[Gal(b1-4)GlcNAc(b1-3)Gal(b1-4)GlcNAc(b1-3)Gal(b1-4)GlcNAc(b1-2)Man(a1-6)]Man(b1-4)GlcNAc(b1-4)[Fuc(a1-6)]GlcNAc
# How it was run: as §1
# [6] = biological target: Gal(b1-4)GlcNAc(b1-3)Gal(b1-4)GlcNAc(b1-3)Gal(b1-4)GlcNAc(b1-2)[Gal(b1-4)GlcNAc(b1-3)Gal(b1-4)GlcNAc(b1-3)Gal(b1-4)GlcNAc(b1-6)]Man(a1-6)[Gal(b1-4)GlcNAc(b1-3)Gal(b1-4)GlcNAc(b1-3)Gal(b1-4)GlcNAc(b1-2)Man(a1-3)]Man(b1-4)GlcNAc(b1-4)[Fuc(a1-6)]GlcNAc
# How it was run: as §1
# [7] = biological target: Gal(b1-4)GlcNAc(b1-3)Gal(b1-4)GlcNAc(b1-3)Gal(b1-4)GlcNAc(b1-3)Gal(b1-4)GlcNAc(b1-2)Man(a1-3)[Gal(b1-4)GlcNAc(b1-3)Gal(b1-4)GlcNAc(b1-3)Gal(b1-4)GlcNAc(b1-3)Gal(b1-4)GlcNAc(b1-2)Man(a1-6)]Man(b1-4)GlcNAc(b1-4)GlcNAc
# How it was run: as §1
# [8] = biological target: Gal(b1-4)GlcNAc(b1-3)Gal(b1-4)GlcNAc(b1-3)Gal(b1-4)GlcNAc(b1-3)Gal(b1-4)GlcNAc(b1-2)Man(a1-3)[Gal(b1-4)GlcNAc(b1-3)Gal(b1-4)GlcNAc(b1-3)Gal(b1-4)GlcNAc(b1-3)Gal(b1-4)GlcNAc(b1-2)Man(a1-6)]Man(b1-4)GlcNAc(b1-4)[Fuc(a1-6)]GlcNAc
# How it was run: as §1
# [9] = biological target: Gal(b1-4)GlcNAc(b1-3)Gal(b1-4)GlcNAc(b1-3)Gal(b1-4)GlcNAc(b1-3)Gal(b1-4)GlcNAc(b1-2)[Gal(b1-4)GlcNAc(b1-3)Gal(b1-4)GlcNAc(b1-3)Gal(b1-4)GlcNAc(b1-3)Gal(b1-4)GlcNAc(b1-6)]Man(a1-6)[Gal(b1-4)GlcNAc(b1-3)Gal(b1-4)GlcNAc(b1-3)Gal(b1-4)GlcNAc(b1-3)Gal(b1-4)GlcNAc(b1-2)Man(a1-3)]Man(b1-4)GlcNAc(b1-4)[Fuc(a1-6)]GlcNAc
# How it was run: as §1
# [10] = biological target: Gal(b1-4)GlcNAc(b1-3)Gal(b1-4)GlcNAc(b1-3)Gal(b1-4)GlcNAc(b1-3)Gal(b1-4)GlcNAc(b1-3)Gal(b1-4)GlcNAc(b1-2)Man(a1-3)[Gal(b1-4)GlcNAc(b1-3)Gal(b1-4)GlcNAc(b1-3)Gal(b1-4)GlcNAc(b1-3)Gal(b1-4)GlcNAc(b1-3)Gal(b1-4)GlcNAc(b1-2)Man(a1-6)]Man(b1-4)GlcNAc(b1-4)GlcNAc
# How it was run: as §1
# [11] = biological target: Gal(b1-4)GlcNAc(b1-3)Gal(b1-4)GlcNAc(b1-3)Gal(b1-4)GlcNAc(b1-3)Gal(b1-4)GlcNAc(b1-3)Gal(b1-4)GlcNAc(b1-2)Man(a1-3)[Gal(b1-4)GlcNAc(b1-3)Gal(b1-4)GlcNAc(b1-3)Gal(b1-4)GlcNAc(b1-3)Gal(b1-4)GlcNAc(b1-3)Gal(b1-4)GlcNAc(b1-2)Man(a1-6)]Man(b1-4)GlcNAc(b1-4)[Fuc(a1-6)]GlcNAc
# How it was run: as §1
# [12] = biological target: Gal(b1-4)GlcNAc(b1-3)Gal(b1-4)GlcNAc(b1-3)Gal(b1-4)GlcNAc(b1-3)Gal(b1-4)GlcNAc(b1-3)Gal(b1-4)GlcNAc(b1-2)[Gal(b1-4)GlcNAc(b1-3)Gal(b1-4)GlcNAc(b1-3)Gal(b1-4)GlcNAc(b1-3)Gal(b1-4)GlcNAc(b1-3)Gal(b1-4)GlcNAc(b1-6)]Man(a1-6)[Gal(b1-4)GlcNAc(b1-3)Gal(b1-4)GlcNAc(b1-3)Gal(b1-4)GlcNAc(b1-3)Gal(b1-4)GlcNAc(b1-3)Gal(b1-4)GlcNAc(b1-2)Man(a1-3)]Man(b1-4)GlcNAc(b1-4)[Fuc(a1-6)]GlcNAc
# How it was run: as §1
# [13] = biological target: Gal(b1-4)GlcNAc(b1-3)Gal(b1-4)GlcNAc(b1-3)Gal(b1-4)GlcNAc(b1-3)Gal(b1-4)GlcNAc(b1-3)Gal(b1-4)GlcNAc(b1-3)Gal(b1-4)GlcNAc(b1-2)Man(a1-3)[Gal(b1-4)GlcNAc(b1-3)Gal(b1-4)GlcNAc(b1-3)Gal(b1-4)GlcNAc(b1-3)Gal(b1-4)GlcNAc(b1-3)Gal(b1-4)GlcNAc(b1-3)Gal(b1-4)GlcNAc(b1-2)Man(a1-6)]Man(b1-4)GlcNAc(b1-4)GlcNAc
# How it was run: as §1
# [14] = biological target: Gal(b1-4)GlcNAc(b1-3)Gal(b1-4)GlcNAc(b1-3)GalNAc
# How it was run: as §1
# [15] = biological target: Gal(b1-4)GlcNAc(b1-3)Gal(b1-4)GlcNAc(b1-3)[Gal(b1-4)GlcNAc(b1-3)Gal(b1-4)GlcNAc(b1-6)]GalNAc
# How it was run: as §1
# [16] = biological target: Gal(b1-4)GlcNAc(b1-3)Gal(b1-4)GlcNAc(b1-6)[Gal(b1-3)]GalNAc
# How it was run: as §1
# [17] = biological target: Gal(b1-4)GlcNAc(b1-3)Gal(b1-4)[Fuc(a1-3)]GlcNAc(b1-3)Gal(b1-4)[Fuc(a1-3)]GlcNAc
# How it was run: as §1
# [18] = biological target: Gal(b1-4)GlcNAc(b1-3)GalNAc
# How it was run: as §1
# [19] = biological target: Gal(b1-4)GlcNAc(b1-3)[Fuc(a1-3)GlcNAc(b1-6)]Gal(b1-4)Glc
# How it was run: as §1
# [20] = biological target: Gal(b1-4)GlcNAc(b1-3)[Gal(b1-4)GlcNAc(b1-6)]Gal(b1-4)GlcNAc
# How it was run: as §1
# [21] = biological target: Gal(b1-4)GlcNAc(b1-3)[GlcNAc(b1-6)]Gal(b1-4)GlcNAc
# How it was run: as §1
# [22] = biological target: Gal(b1-4)GlcNAc(b1-6)Gal(b1-4)GlcNAc
# How it was run: as §1
# [23] = biological target: Gal(b1-4)GlcNAc(b1-6)GalNAc
# How it was run: as §1
# [24] = biological target: Gal(b1-4)GlcNAc(b1-6)[Gal(b1-3)]GalNAc
# How it was run: as §1
# [25] = biological target: Gal(b1-4)GlcNAc(b1-6)[Gal(b1-4)GlcNAc(b1-3)]GalNAc
# How it was run: as §1
# [26] = biological target: Gal(b1-4)GlcNAc6P
# How it was run: as §1
# [27] = biological target: Gal(b1-6)Gal
# How it was run: as §1
# [28] = biological target: Gal3S(b1-3)GalNAc
# How it was run: as §1
# [29] = biological target: Gal3S(b1-3)GlcNAc
# How it was run: as §1
# [30] = biological target: Gal3S(b1-3)[Fuc(a1-4)]GlcNAc
# How it was run: as §1
# [31] = biological target: Gal3S(b1-4)Glc
# How it was run: as §1
# [32] = biological target: Gal3S(b1-4)Glc6S
# How it was run: as §1
# [33] = biological target: Gal3S(b1-4)GlcNAc
# How it was run: as §1
# [34] = biological target: Gal3S(b1-4)[Fuc(a1-3)]Glc6S
# How it was run: as §1
# [35] = biological target: Gal3S(b1-4)[Fuc(a1-3)]GlcNAc
# How it was run: as §1
# [36] = biological target: Gal3S(b1-4)[Fuc(a1-3)]GlcNAc6S
# How it was run: as §1
# [37] = biological target: Gal3S4S(b1-4)GlcNAc
# How it was run: as §1
binder,measurement,setting,value
B1,glycan array binding signal (z-score),[1],1.62
same,glycan array binding signal (z-score),[2],-0.24
same,glycan array binding signal (z-score),[3],-0.596
same,glycan array binding signal (z-score),[4],-0.204
same,glycan array binding signal (z-score),[5],-0.406
same,glycan array binding signal (z-score),[6],-0.199
same,glycan array binding signal (z-score),[7],-0.082
same,glycan array binding signal (z-score),[8],-0.254
same,glycan array binding signal (z-score),[9],-0.336
same,glycan array binding signal (z-score),[10],-0.234
same,glycan array binding signal (z-score),[11],-0.04
same,glycan array binding signal (z-score),[12],-0.089
same,glycan array binding signal (z-score),[13],-0.513
same,glycan array binding signal (z-score),[14],-0.022
same,glycan array binding signal (z-score),[15],0.086
same,glycan array binding signal (z-score),[16],-0.341
same,glycan array binding signal (z-score),[17],-0.503
same,glycan array binding signal (z-score),[18],-0.48
same,glycan array binding signal (z-score),[19],-0.083
same,glycan array binding signal (z-score),[20],-0.386
same,glycan array binding signal (z-score),[21],-0.486
same,glycan array binding signal (z-score),[22],0.605
same,glycan array binding signal (z-score),[23],0.015
same,glycan array binding signal (z-score),[24],0.074
same,glycan array binding signal (z-score),[25],-0.393
same,glycan array binding signal (z-score),[26],0.795
same,glycan array binding signal (z-score),[27],-0.252
same,glycan array binding signal (z-score),[28],1.07
same,glycan array binding signal (z-score),[29],0.574
same,glycan array binding signal (z-score),[30],0.322
same,glycan array binding signal (z-score),[31],-0.041
same,glycan array binding signal (z-score),[32],0.397
same,glycan array binding signal (z-score),[33],0.189
same,glycan array binding signal (z-score),[34],-0.126
same,glycan array binding signal (z-score),[35],0.82
same,glycan array binding signal (z-score),[36],1.7
same,glycan array binding signal (z-score),[37],1.08
